Assay results from PubChem BioAssay AID1476 (National Center for Advancing Translational Sciences (NCATS), 2009).
About 4,500 (2.2%) of roughly 200,000 compounds were called active. Inconclusive results, whose numbers are uncertain, are shown with a selection of clear calls. Calls follow the shape of the dose curve; as a rule, active = well fitted inhibition curve with a large enough effect; inconclusive = small, poorly fitted or top-dose-only effect, or effect the other way; inactive = flat fitted curve, though single readings scatter. Where the call is inconclusive, the potency comes from a doubtful curve fit.
Also: nearly all actives have a fitted effect of over 40% in size.
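For max response, negative = inhibition in this document: plate controls were enzyme without inhibitor for no effect and buffer without enzyme for full effect.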
Potency is read from the fitted curve at half-maximal effect; tags tell the direction and shape of the fitted curve.

The compounds below were run against Cruzipain (Trypanosoma cruzi) (UniProt P25779) (assay: qHTS Assay for Promiscuous and Specific Inhibitors of Cruzain (without detergent)). Details: purified cruzain, Z-FR-AMC fluorescence, no detergent.
UniProt P25779, sequence (P25779 whole entry, looked up): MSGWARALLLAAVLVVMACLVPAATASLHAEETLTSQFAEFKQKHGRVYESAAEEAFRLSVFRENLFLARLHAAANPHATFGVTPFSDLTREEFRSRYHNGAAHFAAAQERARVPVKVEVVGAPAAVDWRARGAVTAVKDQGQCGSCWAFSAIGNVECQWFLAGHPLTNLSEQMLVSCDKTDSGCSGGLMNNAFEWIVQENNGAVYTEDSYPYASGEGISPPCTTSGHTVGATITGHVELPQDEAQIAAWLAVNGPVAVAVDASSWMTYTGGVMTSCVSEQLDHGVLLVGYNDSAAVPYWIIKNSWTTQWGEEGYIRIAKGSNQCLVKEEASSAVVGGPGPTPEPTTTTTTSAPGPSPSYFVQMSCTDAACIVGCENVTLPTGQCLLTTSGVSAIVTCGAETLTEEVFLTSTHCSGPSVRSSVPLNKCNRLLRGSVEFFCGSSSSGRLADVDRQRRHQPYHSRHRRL
In short: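 Purified cruzain at 1.5 nM, pre-incubated 15 min with compound at room temperature in 100 mM sodium acetate pH 5.5, 5 mM DTT, 0.00005% Triton X-100. Reaction started with 2 uM Z-FR-AMC; AMC fluorescence increase over 60 s gives rate.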
`COc1cc(C2Nc3ccccc3C(=O)N2c2ccc3c(c2)OCCO3)ccc1OCC(C)C` (stereo unspecified) was tested, and the Potency was inconclusive: 39.8 µM [activator, single point]. For `COc1ccccc1N1CCN(c2cc(=O)n(-c3ccccc3Cl)c(=O)[nH]2)CC1`, the Potency was inconclusive: 39.8 µM [activator, single point]. With `CCOc1ccccc1OCC(=O)NCc1ccco1` the Potency was inconclusive: 25.1 µM [activator, single point]. With `CN(C)S(=O)(=O)c1cccc(-c2nn(-c3ccccc3)cc2/C=C(\C#N)c2nc3ccccc3[nH]2)c1` the Potency was inconclusive: 20 µM [inhibitor, partial curve]. `COc1ccccc1N1C(=O)NC(=O)/C(=C/c2ccc3c(c2)Cc2ccccc2-3)C1=O` was tested, and the Potency was inconclusive: 25.1 µM [activator, single point]. With `O=C(O)[C@@H]1[C@@H](C(=O)NCc2cccnc2)[C@@H]2C=C[C@@H]1O2` the max response, negative = inhibition was inactive: 9.94%. `CCc1ccc(NC(=O)Cn2c(=O)oc3cc(S(=O)(=O)NCc4ccccc4)ccc32)cc1` was tested, and the Potency was inconclusive: 25.1 µM [activator, single point]. For `NC(=O)c1noc(C(=O)N(CC(=O)NC2CCCC2)Cc2ccc3c(c2)OCO3)c1N`, the Potency was inconclusive: 0.126 µM [activator, single point]. In the case of `CC(C)Cn1c(-c2ccc(Br)o2)n[nH]c1=S`, the max response, negative = inhibition is reported as inactive: -4.5%. With `Cc1ccc(C)c(Cn2c(C)c(CNCc3ccc(F)cc3)c(C(=O)O)c2C)c1` the max response, negative = inhibition was inactive: 16.1%. In the case of `Nc1ccc(Br)c2c1C(=O)c1ccccc1C2=O`, the Potency is reported as inconclusive: 25.1 µM [inhibitor, single point]. For `COc1ccc2cc(C(=O)NCc3ccc4c(c3)CCN4C(=O)c3ccc(C)cc3)[nH]c2c1`, the Potency was active: 12.6 µM. `COc1cccc(-c2ccc(C#N)c(SCC(=O)NCCc3cccc(Cl)c3)n2)c1` was tested, and the Potency was active: 31.6 µM. In the case of `Fc1ccc(/C=N/NC(=S)Nc2ccc(Cl)cc2)cc1F`, the Potency is reported as inconclusive: 31.6 µM [inhibitor, single point]. For `COCc1cc(C)nc(OCC(=O)N/N=C/c2ccc(-c3cc([N+](=O)[O-])ccc3C)o2)c1C#N`, the Potency was inconclusive: 39.8 µM [activator, single point]. For `CCN(CC)S(=O)(=O)c1cc(C(=O)N(C)CC(=O)Nc2ccc(Cl)cc2)ccc1Cl`, the Potency was inconclusive: 39.8 µM [activator, single point]. For `CCCCCCc1cc2cc(-c3nnc(-c4ccc(C)cc4)o3)c(=O)oc2cc1O`, the max response, negative = inhibition was inactive: -0.668%. In the case of `CC(C)CCNc1nc2c(S(=O)(=O)c3ccc(Br)cc3)nnn2c2ccsc12`, the Potency is reported as inconclusive: 39.8 µM [activator, single point]. With `O=C(Nc1ccc2nc(-c3ccco3)c(-c3ccco3)nc2c1)N1CCCCCC1` the Potency was active: 2 µM. For `CCC1=C(OC(=O)N(CC)CC)N2C(=O)OC(=NCC3CC3)[C@]2(Cc2ccccc2)[C@H]2C1=CC[C@H]1C(=O)N(C)C(=O)[C@H]12`, the Potency was inconclusive: 25.1 µM [activator, partial curve]. `COCCCNc1ncnc2sc3c(c12)CCC(C)C3` (stereo unspecified) was tested, and the Potency was inconclusive: 39.8 µM [activator, single point]. `Cn1cc(/C=C(\C#N)C(=O)Nc2ncc(Cc3ccc(Cl)cc3)s2)c2ccccc21` was tested, and the Potency was active: 7.94 µM. `CC1=CN2C(=N)/C(=C/c3ccc(Sc4ccc(C)cc4)o3)C(=O)N=C2S1` was tested, and the Potency was inconclusive: 39.8 µM [inhibitor, single point]. `CCC1CCCCN1C(=O)CSc1n[nH]c(-c2ccccc2Cl)n1` (stereo unspecified) was tested, and the max response, negative = inhibition was inactive: 12.2%. `COc1ccc(CCNC(=O)c2cnc3sc(N4CCC(C)CC4)nn3c2=O)cc1OC` was tested, and the max response, negative = inhibition was inactive: -4.57%. With `COC(=O)C(Cc1ccc(OC(=O)c2ccc(Cl)cc2)cc1)N1Cc2ccccc2C1=O` (stereo unspecified) the Potency was inconclusive: 25.1 µM [activator, single point]. In the case of `O=C(Nc1cccc(C(=O)N2CCN(c3ccccc3F)CC2)c1)c1nsc2ccccc12`, the Potency is reported as inconclusive: 31.6 µM [inhibitor, single point]. `CN(C)CCNC(=O)CN1C(=O)CCn2nc(-c3cn(C)c4ccccc34)cc21` was tested, and the Potency was inconclusive: 0.398 µM [activator, partial curve]. In the case of `Cn1c(C(=O)NCCN2CCc3ccccc3C2)cc2c(=O)[nH]c3ccccc3c21`, the Potency is reported as inconclusive: 39.8 µM [inhibitor, single point]. `COC(=O)c1ccc2c(=O)n(CCCCCC(=O)N3CCN(c4cc(Cl)ccc4C)CC3)c(=O)[nH]c2c1` was tested, and the max response, negative = inhibition was inactive: 3.58%. `CCN(C(=O)COC(=O)c1cc(C)n(-c2ccc(F)cc2)c1C)C1CCS(=O)(=O)C1` (stereo unspecified) was tested, and the Potency was inconclusive: 39.8 µM [activator, single point]. In the case of `CCOc1cc(N2CCOCC2)c(OCC)cc1NC(=O)Cc1ccc(OC)c(OC)c1`, the Potency is reported as inconclusive: 39.8 µM [activator, single point]. With `CC(C)(C)C1CCc2c(sc(NC(=O)CCC(=O)O)c2C(=O)Nc2ccccc2C(F)(F)F)C1` (stereo unspecified) the Potency was inconclusive: 3.98 µM [activator, partial curve]. With `NS(=O)(=O)c1ccc(CCNC(=O)c2ccc3nc(Cc4ccccc4)oc3c2)cc1` the max response, negative = inhibition was inactive: 12%. `Cc1ccc(OCCn2c(C3CC(=O)N(Cc4ccccc4)C3)nc3ccccc32)cc1` (stereo unspecified) was tested, and the Potency was inconclusive: 25.1 µM [activator, single point]. In the case of `FC(F)(F)c1cccc(N2CCN(Cc3nnc(-c4ccc5c(c4)OCO5)o3)CC2)c1`, the Potency is reported as inconclusive: 39.8 µM [activator, single point]. With `COc1ccc(C(=O)OCc2cc3cccc(C)c3[nH]c2=O)cc1` the Potency was inconclusive: 31.6 µM [inhibitor, single point]. In the case of `Cc1sc(NC(=S)NC(=O)c2cccs2)nc1-c1ccc(C(C)C)cc1`, the Potency is reported as active: 10 µM. In the case of `O=C(N/N=C/c1cccc([N+](=O)[O-])c1)C1CC1c1ccccc1` (stereo unspecified), the Potency is reported as inconclusive: 39.8 µM [inhibitor, single point]. With `CCOc1ccccc1CNC(=O)C1CCN(S(=O)(=O)c2c(C)noc2/C=C/c2ccc(C)cc2)CC1` the max response, negative = inhibition was inactive: -12.1%. `CC(C)(C)c1ccc(/C([O-])=C(/C(=S)NCc2ccco2)[n+]2ccccc2)cc1` was tested, and the Potency was inconclusive: 39.8 µM [inhibitor, single point]. `COc1ccc(NC(=O)C(C)n2nnc3sc(-c4ccccc4)cc3c2=O)cc1Cl` (stereo unspecified) was tested, and the Potency was active: 25.1 µM. For `COc1cc([N+](=O)[O-])ccc1NC(=O)N1CCN(c2cc(-c3noc(C)n3)ccc2C)CC1`, the max response, negative = inhibition was inactive: -4.34%. With `Cc1cccc(N2CCN(C(=O)Cn3cnc4sc(C)c(S(=O)(=O)N5CCN(c6ncccn6)CC5)c4c3=O)CC2C)c1` (stereo unspecified) the Potency was inconclusive: 25.1 µM [activator, partial curve]. `FC(F)(F)c1cccc(-c2nnn3c2nc(NC2CCCCC2)c2ccccc23)c1` was tested, and the Potency was inconclusive: 3.16 µM [inhibitor, single point]. For `CCC(C)NC(=O)C1CCN(C(=O)c2ccc(-n3ccc4ccccc43)s2)CC1` (stereo unspecified), the max response, negative = inhibition was inactive: 16.9%. `COc1ccc(CNC(=O)CSc2nnnn2-c2ccccc2)cc1` was tested, and the max response, negative = inhibition was inactive: 5.52%. In the case of `CCOC(=O)c1ccc(NC(=O)CSc2nccn2-c2ccc(OCC)cc2)cc1`, the max response, negative = inhibition is reported as inactive: 17.4%. For `COc1ccccc1-c1c(C)nn2c(N3CCC4(CC3)OCCO4)cc(C)nc12`, the Potency was inconclusive: 39.8 µM [activator, single point]. For `O=c1c(-c2cccc(F)c2)nc2cncnc2n1Cc1ccccc1`, the max response, negative = inhibition was inactive: -9.99%. In the case of `N[C@H](Cc1cc(I)c(Oc2ccc(O)c(I)c2)c(I)c1)C(=O)O`, the max response, negative = inhibition is reported as inactive: -14.1%. In the case of `Cc1cccc(-c2nc(CSCC(=O)N3CCN(c4ccccc4)CC3)c(C)o2)c1`, the Potency is reported as inconclusive: 39.8 µM [activator, single point]. For `Cc1ccc(C(=O)CNc2cccc(Cl)c2)cc1`, the max response, negative = inhibition was inactive: -23%. With `Cc1cccc(NC(=O)C(Cc2ccccc2)n2cccc2)c1C` (stereo unspecified) the max response, negative = inhibition was inactive: 5.37%. For `COc1cc(OC)c(NC(=O)N2CCc3c(sc4c3CCCC4)C2c2ccccc2)cc1Cl` (stereo unspecified), the Potency was active: 10 µM. In the case of `O=C(CSc1nc2ncc(Br)cc2[nH]1)c1cccc([N+](=O)[O-])c1`, the Potency is reported as inconclusive: 31.6 µM [inhibitor, single point]. With `CCS(=O)(=O)N1Cc2ccccc2CC1C(=O)Nc1nc2ccc(C)cc2s1` (stereo unspecified) the Potency was active: 12.6 µM. `CCOC(=O)c1c(NC(=O)c2cnn3c2NC(c2cccc(OC)c2)CC3C(F)(F)F)sc2c1CCCC2` (stereo unspecified) was tested, and the Potency was active: 3.16 µM. `CCCCOC(=O)c1[nH]c2c(c1C)C(=O)CC(c1cc(OC)c(OC)c(OC)c1)C2` (stereo unspecified) was tested, and the Potency was inconclusive: 31.6 µM [activator, single point]. For `O=C(O)/C(=C\c1ccccc1)Cc1ccccc1`, the max response, negative = inhibition was inactive: -0.0889%. In the case of `COc1ccc(CNC(=O)C(C)N2Cc3ccccc3C2=O)cc1` (stereo unspecified), the max response, negative = inhibition is reported as inactive: 0.0042%. For `N#Cc1c(-c2ccc3c(c2)OCO3)ccn2nc(-c3cccc(C(F)(F)F)c3)nc12`, the Potency was inconclusive: 3.98 µM [activator, single point]. For `CCn1ccc2cc(S(=O)(=O)N3CCCN(C(=O)Nc4ccc(C)c(F)c4)CC3)ccc21`, the Potency was inconclusive: 39.8 µM [inhibitor, single point]. `COC(=O)N1[C@H](C)C=C[C@]1(Cc1ccccc1)C(=O)NCc1ccc(N(C)C)cc1` was tested, and the max response, negative = inhibition was inactive: -3.13%. For `CC1N=C2c3ccccc3N=C(SCC(=O)NCCc3ccccc3)N2C1=O` (stereo unspecified), the max response, negative = inhibition was inactive: -13.6%. `Fc1ccc(CSc2nc3ccccc3[nH]2)c2ccccc12` was tested, and the Potency was inconclusive: 31.6 µM [inhibitor, single point].
